According to PubChem BioAssay AID1434 (Sanford-Burnham Center for Chemical Genomics, 2008):
The list shows a part of the results. These are further read-outs of the screen, such as a control signal, another cell line or another target. No call is given for them. Most of these compounds were active or inconclusive in the main read-out, so they are no random draw.

Molecular target: Runt-related transcription factor 1 (Homo sapiens) + Core-binding factor subunit beta (Homo sapiens) (UniProt Q01196+Q13951)
Chain of UniProt Q01196 (Q01196 whole entry, looked up): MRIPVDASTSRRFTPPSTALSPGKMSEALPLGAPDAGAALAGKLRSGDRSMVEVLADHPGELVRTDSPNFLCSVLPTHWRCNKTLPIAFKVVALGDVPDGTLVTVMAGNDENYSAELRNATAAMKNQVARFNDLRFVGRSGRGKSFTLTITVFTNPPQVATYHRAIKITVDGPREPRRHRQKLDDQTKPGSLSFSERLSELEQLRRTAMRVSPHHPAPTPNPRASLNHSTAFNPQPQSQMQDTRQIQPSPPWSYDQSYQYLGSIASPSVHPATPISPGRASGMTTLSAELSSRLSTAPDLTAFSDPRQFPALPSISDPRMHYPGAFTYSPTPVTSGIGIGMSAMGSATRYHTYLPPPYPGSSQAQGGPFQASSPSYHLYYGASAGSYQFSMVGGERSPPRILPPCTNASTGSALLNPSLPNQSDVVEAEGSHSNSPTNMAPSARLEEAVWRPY
Chain of UniProt Q01196 (Q13951 whole entry, looked up): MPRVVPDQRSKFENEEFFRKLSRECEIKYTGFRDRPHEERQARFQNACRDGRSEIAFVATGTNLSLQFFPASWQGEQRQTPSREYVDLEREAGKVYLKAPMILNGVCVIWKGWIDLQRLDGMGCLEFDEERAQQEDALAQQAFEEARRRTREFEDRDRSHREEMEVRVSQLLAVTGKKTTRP
Assay: inhibitors of RUNX1 Runt–CBFb-SMMHC binding, primary screen, biochemical, FRET, Cerulean-Runt, Venus-CBFb-SMMHC, uHTS (AID 1434);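 note: 0% = DMSO wells and 100% = wells with excess untagged CBFb-SMMHC; inhibitors lower the FRET ratio by blocking Runt binding to CBFb-SMMHC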
Conditions: Cerulean-Runt/Venus-CBFb-SMMHC FRET ratio 530/480, 1 h; retest duplicate average; at 20 µM; stronger effect = higher value

SMILES	inhibition [%]
CCOC(=O)c1cc2c(=O)n3ccccc3nc2n(Cc2ccco2)c1=NC(=O)c1ccccc1OC	125
Nc1c(C(=O)NCc2ccco2)c2nc3ccccc3nc2n1CCc1ccccc1	139
Cc1c(Br)c(=O)oc2c(Br)c(O)c(O)cc12	71.5
Cn1c(/C=C(\C#N)C(N)=S)ccc1-c1ccc(Br)cc1	70.6
CCC(=O)Nc1c(S(=O)(=O)c2ccc(C)cc2)c2nc3ccccc3nc2n1C(C)c1ccccc1 (configuration not stated)	89.2
Oc1cc2c(cc1O)C1c3ccc(O)c(O)c3OCC1(O)C2 (configuration not stated)	55.5
COc1cc2cc(C(N)=O)c(N)nc2cc1OC	147
CCOc1ccc(N=c2oc3cc(O)ccc3cc2C(=O)NCC2CCCO2)cc1 (configuration not stated)	136
Cc1ccc(-c2cc(-c3ccccc3)c3c(N)c(S(C)(=O)=O)sc3n2)cc1	123
CCCOc1c(Br)cc(C2C3=C(CCCC3=O)N(CC)C3=C2C(=O)CCC3)cc1OC	95.5
O=C(c1ccccc1)c1cc2ccc(O)cc2oc1=O	146
CCOc1ccc2nc(NCCCNS(=O)(=O)c3ccccc3)c(C#N)cc2c1	72.9
Nc1c(C(=O)NCc2ccco2)c2nc3ccccc3nc2n1CCc1ccccc1F	139
Cc1ccc(C)n1-c1nccc(-c2ccco2)n1	70.6
COCCNC(=O)Nc1ccc2nc(-c3cccs3)c(-c3cccs3)nc2c1	64.9
N#C/C(=C\c1c(N2CCCCCC2)nc2ccccn2c1=O)C(=O)NC1CCS(=O)(=O)C1 (configuration not stated)	71.5
CCCCc1cc(=O)oc2c(CN3CCCC3)c(O)c(Cl)cc12	179
Cc1ccc2nc3c(cc(C(=O)NCC4CCCO4)n3C)c(=O)n2c1 (configuration not stated)	75.3
COC(=O)C1=CN(C)C=C(C(=O)OC)C1c1ccccc1Cl	71.5
Cc1ccccc1OCCn1cc(/C=C(\C#N)C(=O)NCc2ccco2)c2ccccc21	71.5
CCOC(=O)/C=C(\C)Sc1cc(O)c2ccccc2c1O	56.7
O=C(Cc1c2ccccc2nc2ccccc12)c1ccccc1	195
O=C(c1nc2n(n1)C(c1ccc(Cl)cc1)C=C(c1ccccc1)N2)N1CCOCC1 (configuration not stated)	71.5

SMILES	inhibition [%]
Cc1cccn2c(=O)c3cc(C(=O)NCC4CCCO4)c(=N)n(Cc4cccnc4)c3nc12 (configuration not stated)	72.9
Cc1cccn2c(=O)c(/C=C(\C#N)C(=O)NC3CCS(=O)(=O)C3)c(N3CC(C)OC(C)C3)nc12 (configuration not stated)	79.8
CC(C)OC(=O)CC(=O)CSc1nc2c(cc1C#N)CCCCC2	76.8
CC1(C(=O)NNC(=O)c2ccc(=O)oc2)CC1Br (configuration not stated)	70.2
Cc1ccc(-n2c(C)cc(/C=N/NC(=O)Cn3c4ccccc4c(=O)c4ccccc43)c2C)cc1	135
Fc1ccccc1N1CC(c2ccccc2)C(c2cccs2)=N1 (configuration not stated)	67
Cc1ccc(-c2ccc(CCC(=O)O)n2NC(=O)c2cccs2)cc1	66.2
Cc1ccc(Cn2cccc(-c3nc4ccccc4s3)c2=O)cc1	107
CCn1c(CSc2nccn2C)nc2cc(C(=O)O)ccc21	55.1
CCOC(=O)c1cc2c(=O)n3ccccc3nc2n(C(C)C)c1=NC(=O)c1ccco1	70.6
COc1cc(C(=O)NCCCNc2nc3cc(C)cc(C)c3cc2C#N)cc(OC)c1OC	86.3
CCCc1c2ccccc2nc2ccccc12	62.3
N#CC(C(=O)NCc1ccccc1)c1nc2ccccc2nc1N1CCCC1 (configuration not stated)	95.6
COCCNC(=O)C(C#N)c1nc2ccccc2nc1N1CCCCCC1 (configuration not stated)	102
CCc1cc[n+](-c2nc3ccccc3nc2[N-]S(=O)(=O)c2ccc(Br)s2)cc1	66.2
COc1ccc(C2C3=C(CC(C)(C)CC3=O)Nc3c2c(=O)[nH]c2nc(C)nn32)cc1 (configuration not stated)	159
O=C(Cc1nc2ccccc2s1)c1ccc(O)cc1O	125
O=C(Cc1ccccc1)N/N=C/c1cc(Br)cc(Cl)c1O	70.6
Cc1ccc(S(=O)(=O)NC(C(=O)Oc2ccc3c(C)c(Cl)c(=O)oc3c2)c2ccccc2)cc1 (configuration not stated)	71.5
Cc1ncc(CO)c(/C=N/NC(=O)c2ccc(Br)cc2)c1O	71.5
COc1ccc(-c2cc(-c3ccco3)[nH]c(=O)c2C#N)cc1	105
O=C(NC1CCCCCC1)c1ccc[nH]c1=S	60.5
COc1ccc(C(=O)Nc2sc3c(c2C#N)CCN(C(C)=O)C3)cc1	91.7

SMILES	inhibition [%]
c1cc2c(cc1-c1csc(NNC3=NCCCCC3)n1)OCCO2	56.9
COc1ccc(-c2c(C#N)c(N)nc3c2CCC3)cc1	101
CC(=O)c1sc(Nc2nc3ccc(F)cc3s2)nc1C	75.9
CC(=O)Oc1cc2oc(=O)c3c(c2cc1Cl)CCC3	142
Cc1cc(=O)oc2cc(OC(=O)c3nn(C(C)C)c(=O)c4ccccc34)ccc12	85.5
CC(C)S(=O)(=O)c1nsc2nc(=O)c(/C=C3\C=Nc4ccccc43)c(N)n12	107
N=c1c(C(=O)NCc2ccc3c(c2)OCO3)cc2c(=O)n3ccccc3nc2n1Cc1cccnc1	182
O=C(O)CCc1ccc(-c2cccs2)n1CC1CCCO1 (configuration not stated)	98.3
Cc1cc2c(c(=O)n1CCCn1ccnc1)C(c1ccco1)C(C#N)=C(N)O2 (configuration not stated)	118
Cc1nc2ccc(S(=O)(=O)Nc3ccc(-c4nc5cccnc5s4)cc3)cc2s1	136
N#Cc1cc2c(=O)n3ccccc3nc2n(CCCN2CCOCC2)c1=O	72.9
Cc1cccc2cc(C#N)c(NCCNC(=O)NC3CCCCC3)nc12	102
CC(C)OC(=O)CSc1nnc2n1C(C)(C)Cc1ccccc1-2	187
Cc1cccc(-n2c(=O)c(C#N)cc3c(=O)n4ccccc4nc32)c1	72.9
N#Cc1c(-c2cccs2)cc(-c2cccs2)[nH]c1=O	155
CN(C)Cc1c(O)c(Cl)cc2c3c(c(=O)oc12)CCCC3	85.7
Cc1ccc2cc(C#N)c(N3CCCN(C(=O)C4CCCO4)CC3)nc2c1C (configuration not stated)	75.3
O=C(Cn1c2ccccc2c(=O)c2ccccc21)N/N=C/c1ccc(N2CCCC2)c([N+](=O)[O-])c1	125
O=c1[nH]c2cc3c(cc2cc1CN(Cc1nnnn1CC1CCCO1)C1CCCCC1)OCO3 (configuration not stated)	72
N=c1c(S(=O)(=O)c2ccc(Cl)cc2)cc2c(=O)n3ccccc3nc2n1CCN1CCOCC1	81.4
COc1cc(/C=C(/C#N)c2nc3ccccc3[nH]2)ccc1OCc1ccc(C(=O)O)o1	54.8
